Results on 88 compounds are retold here after paper PMC4336329 (PLoS ONE, 2015).

Out of some 310,000 compounds screened, about 2,200 (0.71%) showed an effect of 50% or more. Effects have a minus sign here. Some of the results follow. Where a SMILES comes first, the peptide text is derived from it. [ ]: non-standard residue; d: D form. The star is where a group is joined. ξ: configuration not given here. Cbz = O=C(OCc1ccccc1)*; ξA = CC(N)C(=O)O

human ether-à-go-go-related gene (hERG) potassium channel, sequence (Q12809 whole entry, looked up): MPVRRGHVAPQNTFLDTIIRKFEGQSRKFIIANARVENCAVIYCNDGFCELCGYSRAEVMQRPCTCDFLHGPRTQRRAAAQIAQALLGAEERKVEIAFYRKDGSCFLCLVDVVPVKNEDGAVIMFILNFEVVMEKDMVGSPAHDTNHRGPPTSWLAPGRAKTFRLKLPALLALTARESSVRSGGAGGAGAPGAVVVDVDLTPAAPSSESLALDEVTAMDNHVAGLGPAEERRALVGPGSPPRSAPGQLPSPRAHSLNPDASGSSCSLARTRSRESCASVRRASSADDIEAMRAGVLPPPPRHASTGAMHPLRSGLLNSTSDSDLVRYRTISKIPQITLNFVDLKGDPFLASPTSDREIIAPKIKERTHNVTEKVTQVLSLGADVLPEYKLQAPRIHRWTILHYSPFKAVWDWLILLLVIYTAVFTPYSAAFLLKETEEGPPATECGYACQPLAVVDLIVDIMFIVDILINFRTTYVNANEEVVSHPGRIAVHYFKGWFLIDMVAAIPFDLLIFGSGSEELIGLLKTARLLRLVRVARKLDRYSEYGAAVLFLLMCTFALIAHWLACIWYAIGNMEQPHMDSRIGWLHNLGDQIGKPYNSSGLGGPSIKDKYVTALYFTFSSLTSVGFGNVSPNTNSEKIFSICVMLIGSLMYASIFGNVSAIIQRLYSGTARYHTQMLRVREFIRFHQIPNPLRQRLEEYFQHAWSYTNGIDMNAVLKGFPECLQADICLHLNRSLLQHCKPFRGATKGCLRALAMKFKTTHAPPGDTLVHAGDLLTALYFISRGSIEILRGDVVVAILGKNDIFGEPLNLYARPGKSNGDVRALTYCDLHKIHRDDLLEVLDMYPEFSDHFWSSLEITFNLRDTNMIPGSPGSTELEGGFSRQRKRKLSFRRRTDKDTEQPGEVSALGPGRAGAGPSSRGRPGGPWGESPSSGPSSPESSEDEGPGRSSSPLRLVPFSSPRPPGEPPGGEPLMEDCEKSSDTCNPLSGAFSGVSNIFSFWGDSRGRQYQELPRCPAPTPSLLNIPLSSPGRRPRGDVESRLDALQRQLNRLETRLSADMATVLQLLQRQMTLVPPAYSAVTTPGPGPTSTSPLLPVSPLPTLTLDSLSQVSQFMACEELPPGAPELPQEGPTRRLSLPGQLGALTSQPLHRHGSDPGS

The experiment addresses human ether-à-go-go-related gene (hERG) potassium channel (human, UniProt Q12809). Nature of the experiment: primary screen, population patch clamp on CHO cells stably expressing hERG.
Turning to `O=C(Nc1nc2ccccc2[nH]1)C12CC3CC(CC(C3)C1)C2`, the “hERG current change (%, negative = inhibition) at 1uM” value was found to be 4.17%.
`Cc1cc(Cl)ccc1OCC(=O)N/N=C/c1ccc(OC2OC(CO)C(O)C(O)C2O)cc1` (stereo not shown): the “hERG current change (%, negative = inhibition) at 1uM” value turned out to be 10.6%.
With `Cc1cc(OC(=O)N2CCOCC2)cc(C)c1Cl` the figure was 6.6%; with `Cc1oc(-c2ccccc2)nc1C(=O)OCC(=O)NCc1ccccc1`, 10.8%.
With `Cc1ccc(-n2cnc(=O)c3cccnc32)cc1` the figure was 2.96%; with `Fc1ccc(CCN2CCN=C2Nc2ccccc2)cc1`, -14.8%; with `CCOC(=O)c1ccc(NC(=O)N2CCN(Cc3ccccc3)CC2)cc1`, 8.74%.
The figure for `CCCc1ccc(OCc2ccc(C(=O)Nc3cccc(C)n3)o2)c(OC)c1` is 10.4%.
On to `Cc1nc(C(=O)NNC(=O)Nc2ccccc2)cs1`, for which the “hERG current change (%, negative = inhibition) at 1uM” value is on record as 12.5%.
As for `CCOc1ccccc1NC(=O)c1nc(S(=O)(=O)Cc2cccc(C)c2)ncc1Cl`, the “hERG current change (%, negative = inhibition) at 1uM” value was -7.3%.
As to `O=C(OCc1nc2ccccc2[n+]([O-])c1C(=O)c1ccccc1)c1cccs1`, the “hERG current change (%, negative = inhibition) at 1uM” value was found to be 9.75%.
The figure for `C=CCOn1c(=O)c(-c2ccc(OC)cc2)[n+]([O-])c2ccccc21` is 1.21%; for `O=c1cc(-c2ccccc2[N+](=O)[O-])oc2ccccc12` it is 7.73%.
With `CC(=O)CNc1ccc(S(=O)(=O)N/N=C/c2ccccc2)cc1` the figure was 12.4%; with `O=C1OCC2=C1C(c1ccccc1)CC(=O)N2c1ccc(F)cc1` (stereo not shown), 10.9%.
As to `O=C(CSc1cccc2cccnc12)Nc1ccc(S(=O)(=O)N2CCOCC2)cc1`, the “hERG current change (%, negative = inhibition) at 1uM” value is listed as -1.7%.
Turning to `CN1CCN(C(=O)c2ccc(CS(=O)(=O)c3c(Cl)cccc3Cl)o2)CC1`, the “hERG current change (%, negative = inhibition) at 1uM” value was found to be 2.21%.
The figure for `O=C(CC(NS(=O)(=O)c1ccc(Cl)cc1)c1ccco1)NCc1ccco1` (stereo not shown) is -0.93%.
As for `Cc1cc(C)c(C#N)c(N2CCN(S(=O)(=O)Cc3ccccc3)CC2)n1`, the “hERG current change (%, negative = inhibition) at 1uM” value is recorded as 14.8%.
With `Fc1ccccc1Cc1noc(CN2CCC(OCc3cccnc3)CC2)n1`, the “hERG current change (%, negative = inhibition) at 1uM” value was 5.91%.
In the case of `CCOC(=O)Cn1nc(-c2ccccc2)nc1-c1ccccc1`, the “hERG current change (%, negative = inhibition) at 1uM” value was found to be 4.99%.
Turning to `O=C(c1cccc(S(=O)(=O)N2CCCCC2)c1)N1CCN(S(=O)(=O)c2ccc(F)cc2)CC1`, the “hERG current change (%, negative = inhibition) at 1uM” value is on record as -6.85%.
The figure for `CCN(CC(=O)Nc1c(F)cccc1F)C(=O)c1ccc(N2CCOCC2)c([N+](=O)[O-])c1` is 18.5%; for `O=C(Nc1ccc(OC(=O)N2CCCCC2)cc1)N1CCOCC1` it is 3.04%; for `O=C(c1cccc2c1C(=O)N(Cc1cccnc1)C2)N1CCN(c2ccccc2)CC1` it is 7.09%.
The figure for `CC(c1nnc(Sc2nnnn2-c2ccccc2)n1-c1ccc(F)cc1)N(C)C` (stereo not shown) is 7.75%.
Regarding `CCOC(=O)C1=C(C)N(C)C2(C)CC1c1ccccc1O2` (stereo not shown), the “hERG current change (%, negative = inhibition) at 1uM” value came out at 4.8%.
With `COc1cccc(NC(=O)COc2cc(O)c3c(c2)OC(C)(C)CC3=O)c1` the figure was -4.39%; with `COCCn1c(C)c(C)c2c(NCCc3ccccc3)ncnc21`, 10.4%; with `CCCS(=O)(=O)N1CCC(C(=O)NC2CCC(C)CC2)CC1` (stereo not shown), 11.2%.
With `CCCc1cc(=O)oc2cc(OCC(=O)N3CCC(C(N)=O)CC3)ccc12`, the “hERG current change (%, negative = inhibition) at 1uM” value is reported as -2.76%.
As for `O=C(Cc1ccc(Cl)cc1)Nc1cc(S(=O)(=O)N2CCOCC2)ccc1N1CCCC1`, the “hERG current change (%, negative = inhibition) at 1uM” value is recorded as 4.84%.
Consider `CCOC(=O)Cn1c2ccccc2c2nc(C)sc21`, for which the “hERG current change (%, negative = inhibition) at 1uM” value came out at 5.47%.
Turning to `CCCN1CCC(NC(=S)Nc2cccc(Cl)c2Cl)CC1`, the “hERG current change (%, negative = inhibition) at 1uM” value came out at 17.7%.
The figure for `COc1cccc(C(=O)Nc2ncc3c(n2)CC(C)(C)CC3=O)c1` is 7.2%; for `CCCCN(CC)CCNC(=S)Nc1ccc2nc(N3CCN(C)CC3)cc(C)c2c1` it is 9.98%.
With `COc1ccc(OC)c(C2C3=C(CC(C)(C)CC3=O)Nc3nnnn32)c1` (stereo not shown) the figure was 7.43%.
For the compound `CC1(C)Cc2c(sc(NC(=O)c3ccco3)c2C#N)C(C)(C)N1`, the “hERG current change (%, negative = inhibition) at 1uM” value worked out at 5.8%.
The figure for `CN(C)CCCN(C(=O)c1ccc(Cl)s1)c1nc2cc3c(cc2s1)OCO3` is -5.53%.
For the compound `COc1cc(C(=O)NCCNC(=O)c2cc(OC)c(C)c(OC)c2)cc(OC)c1C`, the “hERG current change (%, negative = inhibition) at 1uM” value came to 12.4%.
Regarding `CCc1cccc2c(C=C(C#N)C#N)cn(CC(=O)N3CCCCC3)c12`, the “hERG current change (%, negative = inhibition) at 1uM” value is 4.82%.
Take `O=C(NN1C(=O)c2cc(Br)ccc2NC1c1ccccc1Cl)c1ccncc1` (stereo not shown): the “hERG current change (%, negative = inhibition) at 1uM” value is reported as 11.5%.
Consider `CCOC(=O)c1cnc2ccc(OC)cc2c1Nc1ccc(N2CCN(C)CC2)cc1`, for which the “hERG current change (%, negative = inhibition) at 1uM” value is recorded as 9.71%.
As to `COc1ccccc1N(CC(=O)N1CCN(c2ccc(F)cc2)CC1)S(=O)(=O)c1ccc(C)cc1`, the “hERG current change (%, negative = inhibition) at 1uM” value amounted to 11.3%.
With `CCN(CC)S(=O)(=O)c1ccc(N/N=C/c2cc(OC)c(OC)cc2OC)nc1` the figure was 17.4%; with `N#CCCn1cc(/C=N/O)c(-c2ccc(F)cc2)n1`, 6.15%.
For `N=c1c(C(=O)NC2CCCCC2)cc2c(=O)n3ccccc3nc2n1Cc1ccccc1`, the “hERG current change (%, negative = inhibition) at 1uM” value is listed as -10.1%.
`COc1ccc(N(CN2C(=O)C3CCCCC3C2=O)C(=O)c2ccco2)cc1` (stereo not shown): the “hERG current change (%, negative = inhibition) at 1uM” value is 4.7%.
The figure for `CC(C)Cc1cc(C(=O)NCc2cccs2)no1` is -3.3%.
In the case of `CN1CCN(S(=O)(=O)c2ccc(Oc3ccc(F)cc3Br)nc2)CC1`, the “hERG current change (%, negative = inhibition) at 1uM” value amounted to 6.61%.
With `O=C(c1ccccc1NS(=O)(=O)c1ccccc1[N+](=O)[O-])N1CCCC1`, the “hERG current change (%, negative = inhibition) at 1uM” value came to 13.1%.
As for `COC(=O)CSc1ccc2nnc(CCNS(=O)(=O)c3ccccc3)n2n1`, the “hERG current change (%, negative = inhibition) at 1uM” value was found to be 12.4%.
Consider `O=C(CSc1nnc(-c2ccccc2)n1-c1ccc(Cl)cc1)NNC(=S)Nc1ccccc1`, for which the “hERG current change (%, negative = inhibition) at 1uM” value was found to be 15.1%.
The figure for `CC(Oc1ccc2c3c(c(=O)oc2c1)CCCC3)C(=O)NCc1ccccn1` (stereo not shown) is 2.21%.
As to `Cc1ccc(S(=O)(=O)N2CCN(C3CCC(c4ccccc4)CC3)CC2)cc1` (stereo not shown), the “hERG current change (%, negative = inhibition) at 1uM” value came to 7.33%.
Regarding `Cc1cccc(C)c1N1C(=O)CN(Cc2ccccc2)C1=S`, the “hERG current change (%, negative = inhibition) at 1uM” value was determined as 4.06%.
The figure for `CC(=O)CSc1nnc(CSc2ncccn2)n1C1CCCCC1` is -7.51%.
The figure for `CCC(=O)NC(c1ccccc1)c1c(OC(C)=O)ccc2ccccc12` (stereo not shown) is -3.05%; for `O=C(O)C1CC(=O)n2c(nc3ccccc32)S1` (stereo not shown) it is 11.8%.
Consider `O=C(NCc1ccccn1)C1CCN(S(=O)(=O)c2cnc[nH]2)CC1`, for which the “hERG current change (%, negative = inhibition) at 1uM” value is on record as 9.57%.
With `C/C(=N\Nc1ccc(Cl)c(C(=O)O)c1)c1cccc2ccccc12` the figure was 0.444%; with `COC(=O)CNC(=O)C(C)NC(=O)CNC(=O)OCc1ccccc1` (stereo not drawn) (Cbz-Gly-[ξA]-Gly-OMe), 2.17%; with `O=C(CN(Cc1ccccc1)C(=O)CNS(=O)(=O)c1ccccc1)NCC1CCCO1` (stereo not shown), 1.8%.
`Nc1nc(NC(=O)c2ccccc2Cl)nn1-c1ccccc1`: the “hERG current change (%, negative = inhibition) at 1uM” value was determined as 6.18%.
`CCOC(=O)C(CC)/C(C)=N/NC(=O)c1ccccc1[N+](=O)[O-]` (stereo not shown): the “hERG current change (%, negative = inhibition) at 1uM” value is -7.21%.
Turning to `C=CCC(COCc1ccccc1)NS(=O)(=O)c1ccccc1Br` (stereo not shown), the “hERG current change (%, negative = inhibition) at 1uM” value amounted to 6.92%.
With `CCOc1ccc(S(=O)(=O)NCCC(=O)N2CC(C)CC(C)C2)cc1` (stereo not shown) the figure was 2.38%; with `CC(NC(=O)/C(C#N)=C1\N=C(NC(=O)c2cccs2)c2ccccc21)c1ccccc1` (stereo not shown), 13.6%; with `Cc1cnc(CN(C)C(=O)CC2C(=O)NCCN2CCCc2ccccc2)[nH]1` (stereo not shown), 8.18%.
The figure for `CC(Nc1cccnc1)=C(C#N)C#N` is 5.19%; for `Cc1cccc([N+](=O)[O-])c1C(=O)O` it is 11.2%.
As for `COc1ccc(-c2cc3nc(C)c(CCC(=O)NCc4ccc(F)cc4)c(C)n3n2)c(OC)c1`, the “hERG current change (%, negative = inhibition) at 1uM” value was -32.7%.
With `COc1cc(NS(=O)(=O)c2ccc(NC(=O)C3CCCO3)cc2)nc(OC)n1` (stereo not shown) the figure was -1.04%.
With `COc1ccc(CNC(=O)N2CCc3ccccc3C2)cc1Cl` the figure was 15.5%.
The figure for `Cc1ccc(C(=O)Nc2ccccc2)cc1S(=O)(=O)Nc1ccc(Cl)cn1` is 9.06%; for `N#Cc1ccccc1NC(=S)NC(=O)C1CCC1` it is 8.91%; for `O=C(CSc1nc(N2CCOCC2)nc(N2CCOCC2)n1)Nc1ccc([N+](=O)[O-])cc1` it is -4.4%.
For the compound `CCCCNc1nc(-c2ccccc2)nc(-n2ccnc2)n1`, the “hERG current change (%, negative = inhibition) at 1uM” value amounted to 14%.
Take `CCOc1ccc(-n2c(=O)[nH]c3sc4c(c3c2=O)CCCC4)cc1`: the “hERG current change (%, negative = inhibition) at 1uM” value was determined as 12.6%.
With `Cl.O=C(Nc1nnc(CCN2CCCCC2)s1)c1ccccc1`, the “hERG current change (%, negative = inhibition) at 1uM” value is listed as 15.5%.
With `O=C(Cc1ccc(Br)cc1)N1CCN(C(=O)c2ccco2)CC1` the figure was -7.27%; with `COCCNC(=O)c1cccc(S(=O)(=O)N2CC3(C)CC2CC(C)(C)C3)c1` (stereo not shown), 12%.
The figure for `Cn1cccc1/C=N/N1CCN(Cc2ccc(Cl)cc2)CC1` is 3.9%; for `CCCCc1ccc(NC(=S)NCCc2ccc(F)cc2)cc1` it is 16%; for `Cc1ccc(/C=C/C(=O)NC(=S)Nc2ccccc2C(=O)NC2CCCCC2)cc1` it is 14.3%.
The figure for `O=C(CN1C(=O)NC2(CCCC2)C1=O)OCc1ccc(Br)cc1` is 9.07%; for `Cc1ccc(S(C)(=O)=O)cc1C(=O)OCC(=O)N(Cc1ccccc1)Cc1ccccc1` it is 7.49%; for `CC1CC1C(=O)Nc1cc(S(=O)(=O)N2CCOCC2)ccc1N1CCCC1` (stereo not shown) it is 4.55%.
